In paper PMC5404276:

Biological target: T1, E. coli cysteine desulfurase (IscS) (E. coli), P0A6B7
T1 chain: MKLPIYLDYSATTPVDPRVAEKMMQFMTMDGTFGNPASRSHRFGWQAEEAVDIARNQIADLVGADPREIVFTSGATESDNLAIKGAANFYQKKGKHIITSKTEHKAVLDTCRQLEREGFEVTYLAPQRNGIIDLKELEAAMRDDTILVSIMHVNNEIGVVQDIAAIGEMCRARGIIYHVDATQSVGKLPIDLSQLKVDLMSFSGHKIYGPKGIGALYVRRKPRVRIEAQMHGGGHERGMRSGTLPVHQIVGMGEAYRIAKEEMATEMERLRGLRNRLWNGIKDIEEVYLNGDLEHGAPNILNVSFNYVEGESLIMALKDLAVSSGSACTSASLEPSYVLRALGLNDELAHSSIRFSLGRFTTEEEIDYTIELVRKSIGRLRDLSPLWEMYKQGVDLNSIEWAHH
Assay: amino acid analysis + other: SAXS
Settings: remark: other sources report otherwise

stoichiometry N: 2
B1: E. coli cysteine desulfurase (IscS), P0A6B7 1-404 (enzyme)
chain: T1 chain
